Test results: PubChem BioAssay AID743279 (National Center for Advancing Translational Sciences (NCATS), 2014)
The whole screen tested about 360,000 compounds, of which about 17,000 (4.7%) were called active. The inconclusive results got no clear call from the source; some entries with a clear call stand among them for comparison. Rule as the data show it: active = activity change below about -50%; inconclusive = mostly about -30% to -49%; inactive = weaker than that.

Experiment: qHTS for Inhibitors of Inflammasome Signaling: IL-1-beta AlphaLISA Primary Screen
Settings: THP-1 LPS/ATP IL-1B secretion, 16 h, at 57.5 µM, stronger effect = lower value
Method in brief: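 Secreted IL-1B measured by AlphaLISA bead assay after 16 h compound exposure of THP-1 cells; compounds (final up to 57.5 uM) added 1 h before LPS (250 ng/mL) and ATP (1.25 mM) stimulation; lower signal means less secretion.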
% is scaled to controls: 0 for no effect and ±100 for the full control effect.

**Q.** Which activity change does the source give for `COC(=O)C(O)(c1ccc(N(C)C(=O)c2ccc(Cl)c(Cl)c2)cc1)C(F)(F)F` (stereo unspecified) here?
**A.** inactive: 17.8%

**Q.** With `Cn1c(=O)cc(SCC(=O)N2CCC3(CC2)OCCO3)c2ccc(Cl)cc21` as the compound, how does the activity change read?
**A.** inconclusive: -38.6%

**Q.** Which activity change does the source give for `CCOc1cc(C2NCc3ccccc3-n3cccc32)ccc1OC` (stereo unspecified) here?
**A.** inconclusive: -32.2%

**Q.** For `COC(=O)C1=C(c2cccc(OCc3ccccc3)c2)C[C@@H]2CC[C@H]1N2C(=O)NCc1ccc([N+](=O)[O-])cc1`, which activity change is on record?
**A.** inconclusive: -42.3%

**Q.** With `CC(=O)OC1C(O)C(C)OC(OC2C(OC(=O)C3CCC4C(C3)OC3(CC(OC(=O)/C=C/c5ccccc5)C(C)CO3)C43CO3)OC(C)C(O)C2OC(C)=O)C1O` (stereo unspecified) as the compound, how does the activity change read?
**A.** active: -98.2%

**Q.** With `CCn1cc(C(=O)NCc2ccccc2)c2ccccc21` as the compound, how does the activity change read?
**A.** inactive: -15.5%

**Q.** For `CCNC(=O)C1OC(n2cnc3c(N)ncnc32)C(O)C1O` (stereo unspecified), which activity change is on record?
**A.** inconclusive: -47.9%

**Q.** Which activity change does the source give for `CCOC(C(=O)OCCCN(CC)CC)(c1ccccc1)c1ccccc1` here?
**A.** inconclusive: -38.4%

**Q.** For `O=C(CN1CC(c2ccccc2)CC1=O)Nc1cccc(F)c1` (stereo unspecified), which activity change is on record?
**A.** inconclusive: -31.1%

**Q.** For `CN(C)CCN(CC1CCCN(Cc2ccccc2F)C1)C(=O)Cc1ccccc1F` (stereo unspecified), which activity change is on record?
**A.** inconclusive: -45.3%

**Q.** For `COCCCNC(=O)Cn1cc(/C=C2\C(=O)NC(=O)N(c3ccccc3F)C2=O)c2ccccc21`, which activity change is on record?
**A.** active: -82.4%

**Q.** For `COc1cc2c(cc1OC)[C@@H]1C(=O)c3ccc4c(c3O[C@@H]1CO2)C[C@H](C(C)C)O4`, which activity change is on record?
**A.** inconclusive: -49.1%

**Q.** Which activity change does the source give for `C[C@]12CC[C@H]3C(CCC4(O)CC(O)CC[C@]34C=O)C1=CC[C@H]2c1ccc(=O)oc1` (stereo partly specified) here?
**A.** inconclusive: -35%

**Q.** For `COc1cc(C(O)CN)ccc1O` (stereo unspecified), which activity change is on record?
**A.** inactive: -3.96%

**Q.** With `CN1C[C@H](CO)C[C@@H]2c3cccc4[nH]cc(c34)C[C@H]21` as the compound, how does the activity change read?
**A.** inactive: -0.754%

**Q.** For `COc1ccc(OC)c(CN2CCCC(C(=O)c3sccc3C)C2)c1` (stereo unspecified), which activity change is on record?
**A.** inconclusive: -44.6%

**Q.** For `O=C1c2ccccc2-c2cc3ccccc3cc21`, which activity change is on record?
**A.** inactive: -9.34%

**Q.** With `c1ccc(CNC2CCCCCCC2)cc1` (tested in a mixture with another compound) as the compound, how does the activity change read?
**A.** active: -73.7%

**Q.** Which activity change does the source give for `CCOC(=O)C1(CCOc2ccccc2)CCN(Cc2cccc(O)c2)CC1` here?
**A.** active: -85.8%

**Q.** For `COc1ccc(C(=O)CC2(CC(=O)c3ccc(OC)cc3)C(=O)N(C)C(=O)N(C)C2=O)cc1`, which activity change is on record?
**A.** inconclusive: -35.1%

**Q.** Which activity change does the source give for `O=C(c1cc2cc3ccc(Cl)cc3nc2o1)N1CCC2(CC1)OCCO2` here?
**A.** inconclusive: -42.6%

**Q.** With `CCn1c(O)c(C=NCCN2CCOCC2)c(=O)n(CC)c1=S` as the compound, how does the activity change read?
**A.** inconclusive: -31.6%

**Q.** Which activity change does the source give for `CCN(CC)c1ccc(/C=C2/C(=O)NC(=O)N(Cc3ccco3)C2=O)cc1` here?
**A.** active: -64.3%

**Q.** Which activity change does the source give for `CCOC(=O)C1(CCc2ccccc2)CCN(Cc2cccc3cnccc23)CC1` here?
**A.** active: -111%

**Q.** With `CCn1nc(-c2ccccc2)nc2c(=O)n(C)c(=O)nc1-2` as the compound, how does the activity change read?
**A.** active: -114%

**Q.** Which activity change does the source give for `CC(C)(C)c1cc(C=C(C#N)C#N)cc(C(C)(C)C)c1O` here?
**A.** active: -76.9%

**Q.** With `COCCNC(=O)c1c(NC(=O)c2ccco2)n(Cc2ccccc2)c2nc3ccccc3nc12` as the compound, how does the activity change read?
**A.** inactive: -8.37%

**Q.** For `C[C@@H]1C[C@@H]([C@H](O)CC2CC(=O)NC(=O)C2)C(=O)[C@@H](C)C1`, which activity change is on record?
**A.** active: -57.6%

**Q.** Which activity change does the source give for `COc1ccc(-c2nn(CCC#N)cc2C(=O)Nc2ccccc2Br)cc1` here?
**A.** inactive: 18.4%

**Q.** With `CCCCN1C(=O)NC(=O)C2(Cc3c(nc4c(C)cccn4c3=O)N3CCc4ccccc4C32)C1=O` (stereo unspecified) as the compound, how does the activity change read?
**A.** inactive: 26.2%

**Q.** For `CCOC(=O)C1(CCc2ccccc2)CCN(C2CCSCC2)CC1`, which activity change is on record?
**A.** inactive: -17.6%

**Q.** Which activity change does the source give for `NC(N)=Nc1ccc2[nH]c3c(c2c1)C[C@@]1(O)[C@H]2Cc4ccc(O)c5c4[C@@]1(CCN2CC1CC1)[C@H]3O5` here?
**A.** inconclusive: -41.5%

**Q.** With `CCn1cc(C=C2C(=O)NC(=O)NC2=O)c2ccccc21` as the compound, how does the activity change read?
**A.** inconclusive: -44.1%

**Q.** With `COc1ccc(-n2c(=O)[nH]c3ccccc3c2=O)cc1` as the compound, how does the activity change read?
**A.** inactive: -6.59%

**Q.** For `CN(C)CCN(CC1CCCN(Cc2ccccc2F)C1)C(=O)Cc1c(F)cccc1F` (stereo unspecified), which activity change is on record?
**A.** inconclusive: -40.2%

**Q.** For `CCCCOCCCn1c(N)c(C(=O)OC(C)COC)c2nc3ccccc3nc21` (stereo unspecified), which activity change is on record?
**A.** inconclusive: -39.5%

**Q.** Which activity change does the source give for `O=[N+]([O-])c1ccc(N2CCNCC2)cc1N1CCCCCC1` here?
**A.** active: -59.3%

**Q.** For `COC(=O)C1=C(c2ccc(F)cc2OCc2ccccc2)C[C@@H]2CC[C@H]1N2C(=O)NCc1ccc2[nH]ccc2c1`, which activity change is on record?
**A.** inconclusive: -39.3%

**Q.** Which activity change does the source give for `CCN1CCN(CC(=O)c2c(C)n(Cc3ccccc3)c3ccc(OC)cc23)CC1` here?
**A.** inconclusive: -30.2%

**Q.** With `COC(=O)C1=C(c2ccc(F)cc2OCc2ccccc2)C[C@@H]2CC[C@H]1N2C(=O)N1CCC(O)(c2ccc(Cl)cc2)CC1` as the compound, how does the activity change read?
**A.** active: -52.8%

**Q.** For `COC(=O)C1=C(c2ccc(F)cc2F)C[C@@H]2CC[C@H]1N2C(=O)NCc1ccc(C(F)(F)F)cc1`, which activity change is on record?
**A.** inconclusive: -31%

**Q.** With `COc1ccccc1C(=O)C1CCCN(Cc2cnc(C)s2)C1` (stereo unspecified) as the compound, how does the activity change read?
**A.** inactive: 18.5%

**Q.** For `CC(C)OC(=O)Cc1ccccc1`, which activity change is on record?
**A.** inactive: 3.2%

**Q.** With `C=CCCC[C@@H]1OC(=O)CNC(=O)C([C@@H](C)CC)NC(=O)[C@@H]2CCCN2C(=O)C([C@@H](C)CC)OC(=O)[C@H](Cc2ccccc2)N(C)C(=O)[C@H](C(C)C)NC(=O)C1(C)C` (stereo partly specified) as the compound, how does the activity change read?
**A.** active: -52.4%

**Q.** For `CCc1c(C)nc(N)nc1N1N=C1SCC(=O)OC`, which activity change is on record?
**A.** inactive: 6.2%

**Q.** For `Cc1ccc(-n2c(=S)[nH]c3ccccc3c2=O)cc1F`, which activity change is on record?
**A.** inconclusive: -37.7%

**Q.** For `COC(=O)C1=C(c2ccc(Cl)c(C(F)(F)F)c2)C[C@@H]2CC[C@H]1N2C(=O)N1CCC(C)CC1`, which activity change is on record?
**A.** inconclusive: -36.2%

**Q.** For `CCOC(=O)[C@]12Cc3cc(OC)ccc3[C@H]1N(CC(=O)OC)C(=O)c1cc(OC)ccc12`, which activity change is on record?
**A.** active: -56.9%

**Q.** Which activity change does the source give for `CCOC(=O)c1cccc(C2=C(CNC(=O)c3cccnc3)[C@H]3CC[C@@H](C2)N3Cc2ccccc2)c1` here?
**A.** inconclusive: -34.4%

**Q.** With `C/C(=N\NC(=O)c1ccccc1)c1c(O)n(C2CCCCC2)c(=O)[nH]c1=O` as the compound, how does the activity change read?
**A.** inactive: -4.7%

**Q.** Which activity change does the source give for `CC1=Nc2cc(C(=O)N3CCC4(CC3)OCCO4)ccc2Sc2ccc(Cl)cc21` here?
**A.** inactive: 0%
